Test results taken from PubChem BioAssay AID504832 (National Center for Advancing Translational Sciences (NCATS), 2011).
In all, about 310,000 compounds went through this assay and about 18,000 (5.8%) were called active. Inconclusive results, whose numbers are uncertain, are shown with a selection of clear calls. Calls follow the shape of the dose curve; as a rule, active = well fitted inhibition curve with a large enough effect; inconclusive = small, poorly fitted or top-dose-only effect, or another doubt; inactive = no such curve, though single readings can be large or run the other way. Potencies of inconclusive entries are left out as doubtful fits.

Experiment: Primary qHTS for delayed death inhibitors of the malarial parasite plastid, 48 hour incubation
Conditions: P. falciparum luciferase growth in erythrocytes; series mostly up to 28.7 µM
Outline: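 Growth was read as firefly luciferase luminescence after a 48 h, 37 C, 5% CO2 exposure of compounds to reporter-bearing P. falciparum cultures (0.1% parasitemia, 2% hematocrit final) in Albumax-supplemented RPMI 1640.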
Potency is read from the fitted curve at half-maximal effect; tags tell the direction and shape of the fitted curve.

Compound	Potency
COc1ccc(NC(=O)N2CCC3(CC2)OCCO3)c(OC)c1	inconclusive [inhibitor, partial curve, poor fit]
Cc1c(C=O)c2ccccn2c1C(=O)c1ccccc1	inactive
CC1CCCCN1C(=O)C(=O)c1cn(CC(=O)N2CCCCCC2)c2ccccc12 (stereo not given)	inconclusive [inhibitor, partial curve]
COc1cc(-c2nc3n(n2)C(c2cccc(OC)c2OC)C2=C(CCCC2=O)N3)cc(OC)c1OC (stereo not given)	inconclusive [inhibitor, full curve]
O=C(OC(C(=O)NC1CCCCC1)c1ccccc1F)c1ccco1 (stereo not given)	inactive
CCC(c1nnc(SCC(=O)NCCc2ccc(Cl)cc2Cl)o1)N(C)C (stereo not given)	inactive
O=C(NCCCNC(=O)c1ccccc1Br)c1ccccc1Br	inconclusive [inhibitor, partial curve, poor fit]
CCCc1cc(=O)oc2c(C)c(OCC(=O)NC3CC(C)(C)NC(C)(C)C3)ccc12	inconclusive [inhibitor, single point]
CCOc1ccc(N(CC(=O)NCCOc2ccccc2OC)S(=O)(=O)c2ccccc2)cc1	inconclusive [inhibitor, partial curve]
O=C(NC1CCN(Cc2ccccc2)C1)c1cc(COc2ccc(F)cc2F)on1 (stereo not given)	inconclusive [inhibitor, full curve, poor fit]
Cc1ccc2nc(CSc3nnc(Nc4ccccc4C)s3)cc(=O)n2c1	inconclusive [inhibitor, single point]
O=C(CNC(=O)c1ccco1)OCc1c(F)cccc1Cl	inactive
CCCn1c(N)c(C(=O)CSc2nncs2)c(=O)[nH]c1=O	inconclusive [inhibitor, single point]
Cc1ccc(C(=O)N2CCN(c3ccc(NC(=S)NC(=O)Cc4ccccc4)cc3)CC2)cc1	inconclusive [inhibitor, partial curve]
O=C(NC1CCCCC1)c1nc2c(nnn2Cc2ccccc2Cl)c(=O)[nH]1	inactive
CC1CCN(c2nc3c(c(=O)[nH]c(=O)n3C)n2CCCc2ccccc2)CC1	active: 11.7 µM
C/C(Cn1nnc([N+](=O)[O-])n1)=N\NC(=O)c1ccc(O)cc1	inconclusive [inhibitor, partial curve]
Cc1ccc(Nc2nc(N3CCOCC3)nc(N3CCOCC3)n2)cc1Cl	inconclusive [inhibitor, single point]
COc1ccc(-c2csc(Nc3cc(C)ccn3)n2)cc1OC	inactive
Cc1ccsc1-c1nc(CN(C)C(C2CC2)C2CC2)c(C)o1	inconclusive [inhibitor, single point]
N#Cc1ccc(S(=O)(=O)N2CCC(C(=O)Nc3cccc(C(=O)NC4CC4)c3)CC2)cc1	inconclusive [inhibitor, partial curve, poor fit]
CN1CCN(C2=Nc3ccccc3Sc3ccc(Cl)cc32)CC1	inconclusive [inhibitor, single point]
O=C1/C(=C/c2ccccc2Cl)SC(=S)N1CCCC(=O)N(CCO)c1ccccc1	inconclusive [inhibitor, single point]
O=S(=O)(Nc1cccc(-c2ccc3nncn3n2)c1)c1ccccc1F	inconclusive [inhibitor, single point]

Compound	Potency
N#CCCN(Cc1ccncc1)C(=S)NC1CC2C=CC1C2 (stereo not given)	inconclusive [inhibitor, full curve, poor fit]
Clc1ccccc1CNCC1CCCO1 (stereo not given)	inconclusive [inhibitor, single point]
O=C(O)c1cc(=O)c2c3nc4ccccc4oc-3cc(=O)c2[nH]1	inconclusive [inhibitor, partial curve, poor fit]
CSc1ccc(/C=C(\NC(=O)c2ccc(C)cc2)C(=O)NN)cc1	inconclusive [inhibitor, single point]
CCN(CC)C(=O)Cn1cc(S(=O)(=O)CC(=O)NC2CCCCC2)c2ccccc21	inactive
O=C(CSc1nnc(CNC(=O)c2ccccc2F)o1)NC1CCCCC1	inactive
CCOc1cccc(-n2nnnc2-c2ccc(OC)cc2)c1	inconclusive [inhibitor, single point]
Cc1ccc(C(=O)N/N=C\c2ccccn2)cn1	inactive
O=C(NCc1ccccn1)C1CCC(=O)N(Cc2ccc(Cl)cc2)C1 (stereo not given)	inconclusive [inhibitor, partial curve]
Cc1ccc(N(C(=O)CNC(=O)c2ccco2)C(C(=O)NC2CCCC2)c2cccnc2)cc1F (stereo not given)	inactive
NC(=O)c1nsc(C(=O)N(c2cccc(F)c2)C(C(=O)NCC2CCCO2)c2ccc3ncccc3c2)c1N (stereo not given)	inconclusive [inhibitor, partial curve]
Cc1ccc(C)c(N2CCN(S(=O)(=O)c3ccc4[nH]c(=O)c(=O)[nH]c4c3)CC2)c1	inconclusive [inhibitor, partial curve, poor fit]
O=C(O)C1=CC2c3ccccc3C1c1ccccc12	inactive
CCc1ccc(NC(=O)c2cc(-c3ccco3)on2)cc1	inactive
CC(C)CN(C(=O)CSc1ccc2c(c1)OCCO2)c1c(N)n(CC(C)C)c(=O)[nH]c1=O	inconclusive [inhibitor, single point]
O=S(=O)(Nc1cc(S(=O)(=O)N2CCOCC2)ccc1O)c1ccc2c(c1)OCCCO2	inactive
O=C(COc1ccc(Cl)cc1)NNC(=O)c1ccccn1	active: 5.22 µM
Cc1cccc(COCC(Cc2ccccc2)N2CCN(C(=O)c3cc(Cl)cc(Cl)c3)CCC2=O)c1 (stereo not given)	inconclusive [inhibitor, partial curve]
CCCCCc1nnc(NC(=O)c2cccc(S(=O)(=O)N3CCOCC3)c2)s1	inconclusive [inhibitor, single point]
CCOc1c(Cl)cc(CNCc2ccccn2)cc1OC	inconclusive [inhibitor, single point]
COc1ccc(-c2ccc3nnc(SCC(N)=O)n3n2)cc1	inactive
Cc1ccccc1CS(=O)(=O)c1cnc2ccccc2n1	active: 14.7 µM
O=C(NNc1nc(-c2ccccc2)c2cc(Br)ccc2n1)c1ccc(S(=O)(=O)N2CCCCC2)cc1	inactive
COCCn1c(SCC(=O)N2CCCc3ccccc32)nc2ccccc2c1=O	inconclusive [inhibitor, partial curve, poor fit]

Compound	Potency
Cc1cccc(C2=NN(c3ccc(Br)cc3)[C@@H](C(=O)N3CCOC3=O)[C@@H]2c2ccc(F)cc2)c1	inconclusive [inhibitor, single point]
CCCCCC(=O)Nc1ccc(-c2nnc3n2CCCCC3)cc1	inconclusive [inhibitor, single point]
O=C(N/N=C(\c1ccccc1)c1ccccn1)c1ccccc1Cl	active: 2.33 µM
CCC1=C2CC[C@H]3C(=O)N(CC)C(=O)[C@H]3[C@H]2[C@@]2(Cc3ccccc3)C(=O)N(Cc3ccccc3)C(=O)N2C1=O	inconclusive [inhibitor, partial curve]
COC(=O)NNC(=O)Cc1cccc2ccccc12	inactive
COc1cc(/C=C(\C#N)c2nc3ccccc3[nH]2)cc(Br)c1OCc1ccc(F)cc1	active: 3.7 µM
COc1cc2c(cc1OC)CN(C(=O)CCNS(=O)(=O)c1ccc(Br)cc1)CC2	active: 9.28 µM
Nc1nc2nccc(-c3ccccn3)n2n1	inconclusive [inhibitor, single point]
COc1ccc(NC(=O)CSc2nc3ccccc3c(=O)n2C)cc1	active: 9.28 µM
CC(C)(C)N1C(=O)[C@H]2[C@@H](c3ccc(Br)cc3)N3C(=O)N(c4ccccc4)C(=O)[C@@]3(C)[C@H]2C1=O	inconclusive [inhibitor, full curve, poor fit]
O=C1CSC(=Nc2ccc(F)cc2)N1	inconclusive [inhibitor, partial curve, poor fit]
CCCCNc1c(-c2ccc(OC)c(Sc3ccc(OC)cc3)c2)nc2ccccn12	inconclusive [inhibitor, single point]
COc1ccc2nc(SCC(=O)NCc3ccc(F)cc3)[nH]c2c1	inactive
COC(=O)CCCNC(=O)c1ccc(OS(=O)(=O)c2cc([N+](=O)[O-])ccc2C)cc1	inconclusive [inhibitor, single point]
CCn1ncc(NC(=S)Nc2ccc(OC)c(OC)c2)c1C(N)=O	inactive
O=C(NC(=S)Nc1cc(Cl)ccc1O)c1cccc(Br)c1	inconclusive [inhibitor, partial curve, poor fit]
CCOC(=O)C[N+](CC)(CC)CC#Cc1ccccc1	inactive
Nc1cc(=O)[nH]c(SCc2cccc(Cl)c2)n1	inconclusive [inhibitor, single point]
CCOc1ccc(/C(O)=C2/C(=O)C(=O)N(CCN(CC)CC)C2c2cccs2)cc1 (stereo not given)	inactive
CCOC(=O)C1CCN(C(=O)c2cccc(S(=O)(=O)N3c4ccccc4CC3C)c2)CC1 (stereo not given)	inconclusive [inhibitor, single point]
CC(C)(C)c1cn(-c2ccccc2)c(=S)[nH]1	inconclusive [inhibitor, single point]
COc1ccc(C(c2nnnn2CC2CCCO2)N2CCN(c3ccc(F)cc3)CC2)cc1 (stereo not given)	inconclusive [inhibitor, single point]
